# Laboratory results published in PubChem BioAssay AID485294 (National Center for Advancing Translational Sciences (NCATS), 2010).
# Screen size: about 370,000 compounds; about 150 (0.041%) were called active. This list was built around the results that the source calls inconclusive (neither active nor inactive); the mix of calls is not that of the screen. Calls come from the whole dose curve; as a rule, active = well fitted inhibition curve with a large enough effect; inconclusive = small, poorly fitted or top-dose-only effect; inactive = flat fitted curve, though single readings scatter. Potencies of inconclusive entries are left out as doubtful fits.
# Target: Beta-lactamase (Escherichia coli (strain K12)) (UniProt P00811)
# Assay: qHTS Inhibitors of AmpC Beta-Lactamase (assay with detergent); note: nearly all actives have a fitted effect of over 25% in size
# Settings: AmpC hydrolysis of nitrocefin, absorbance 480 nm, 0.01% Triton; series mostly up to 114 µM
# Procedure, shortened: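 AmpC (5.3 nM in the dispensed reagent) in 20 mM phosphate pH 7.0 with 0.01% (detergent screen) or 0.0001% Triton X-100 was preincubated with compounds for 15 min at room temperature. Nitrocefin was then added from an 800 uM solution, and hydrolysis was followed at 480 nm.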
# Potency is the fitted concentration of half-maximal effect; tags give direction and shape of the fitted curve.
# Chain of UniProt P00811 (P00811 whole entry, looked up): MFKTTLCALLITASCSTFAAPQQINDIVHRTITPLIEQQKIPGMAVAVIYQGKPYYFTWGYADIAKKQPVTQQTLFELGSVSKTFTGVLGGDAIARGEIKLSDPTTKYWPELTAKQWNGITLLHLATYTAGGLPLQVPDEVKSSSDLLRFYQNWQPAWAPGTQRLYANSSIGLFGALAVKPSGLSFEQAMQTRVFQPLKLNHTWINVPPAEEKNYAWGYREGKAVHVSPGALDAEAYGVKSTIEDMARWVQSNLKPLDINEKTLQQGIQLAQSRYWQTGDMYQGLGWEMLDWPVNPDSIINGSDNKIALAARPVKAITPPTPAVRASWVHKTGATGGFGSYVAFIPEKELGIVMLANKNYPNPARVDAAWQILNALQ
row,SMILES,Potency
1,Cc1c(Cl)cccc1N1C(=O)C2ON(c3ccccc3)C(c3cccnc3)C2C1=O (stereo unspecified),"inconclusive [inhibitor, full curve, poor fit]"
2,CC1CCc2c(sc3nc(C(C)(C)C)nc(N4CCN(C(=O)CCl)CC4)c23)C1 (stereo unspecified),"inconclusive [inhibitor, full curve, poor fit]"
3,COC(=O)COc1ccc(S(=O)(=O)Nc2ccc(C(N)=O)cc2)cc1Cl,"inconclusive [inhibitor, partial curve, poor fit]"
4,Cc1ccc2[nH]c(CCN(C)C)c(CN3CCOCC3)c2c1,inactive
5,COc1ccc2sc(N(CCCN(C)C)C(=O)c3ccc(S(=O)(=O)N(C)C4CCCCC4)cc3)nc2c1,"inconclusive [inhibitor, full curve, poor fit]"
6,COC(=O)c1ccccc1S(=O)(=O)N(CCCO)Cc1cc2c(C)ccc(C)c2[nH]c1=O,"inconclusive [inhibitor, full curve, poor fit]"
7,O=C(Nc1ccccc1N1CCCC1)C1CCN(S(=O)(=O)c2ccccc2C(F)(F)F)CC1,"inconclusive [inhibitor, full curve, poor fit]"
8,COc1cc2c(cc1OC)C1C/C(=N\O)C(CC(C)C)CN1CC2 (stereo unspecified),"inconclusive [inhibitor, full curve, poor fit]"
9,O=C(NCc1cccc(Cl)c1)c1cnccn1,"inconclusive [inhibitor, full curve, poor fit]"
10,O=C(COc1ccccc1)Nc1cccc(S(=O)(=O)N2CCCC2)c1,inactive
11,O=C(c1ccc(S(=O)(=O)c2ccccc2Cl)c([N+](=O)[O-])c1)N1CCN(Cc2ccccc2)CC1,inactive
12,COc1cc(OC)cc(C(=O)OCC(=O)N(C)c2ccccc2)c1,"inconclusive [inhibitor, full curve]"
13,Cc1ccc(S(=O)(=O)Nc2ccc(N=Nc3ccc(O)cc3)cc2)cc1,inactive
14,CC(C)c1nc2n[nH]c(N)c2c2c1CCCC2,"inconclusive [inhibitor, full curve, poor fit]"
15,Cc1cccc(OCC(=O)Nc2ccc3c(c2)nc(CCN2CCCCC2)n3C)c1,"inconclusive [inhibitor, full curve, poor fit]"
16,O=C(Nc1ccc(S(=O)(=O)N2CCOCC2)cc1)C1CC(=O)N(c2ccc(F)cc2)C1 (stereo unspecified),inactive
17,CS(=O)(=O)Nc1ccc2c(c1)OCC(=O)N2Cc1ccccc1,"inconclusive [inhibitor, full curve, poor fit]"
18,CC(c1ccc(Cl)cc1)n1c(-c2ccc3ccccc3n2)n[nH]c1=S (stereo unspecified),inactive
19,Cc1ccc(CNC(=O)Cn2cc(C(=O)c3ccc(F)cc3)c(=O)c3ccc(C)nc32)cc1,inactive
20,O=c1[nH]c(=O)n(CCc2ccccc2)c(O)c1C=NCCCn1ccnc1,"inconclusive [inhibitor, full curve, poor fit]"
21,CC(Cc1ccccc1)[n+]1cc(/N=C(\N)[O-])on1 (stereo unspecified),"inconclusive [inhibitor, full curve]"
22,CCCc1cc(C(=O)Nc2sc(C)c(C)c2C(=O)OCC)no1,"inconclusive [inhibitor, full curve]"

row,SMILES,Potency
1,CC(C)CNC(=O)c1cc(-c2ccco2)on1,inactive
2,CCOC(=O)N/N=C\c1ccc(OC/C=C/c2ccccc2)cc1,"inconclusive [inhibitor, full curve, poor fit]"
3,O=C1c2ccccc2C(O)N1c1ccccc1 (stereo unspecified),"inconclusive [inhibitor, full curve, poor fit]"
4,Cc1onc(-c2ccccc2Cl)c1C(=O)Nc1ccc(-c2cn3cccnc3n2)cc1,"inconclusive [inhibitor, full curve, poor fit]"
5,CC(C)(C)c1ccc(/C=N/N2C(=O)CSC2=S)cc1,"inconclusive [inhibitor, full curve, poor fit]"
6,COc1ccc(-c2ccc(CCC(=O)O)n2-c2ccccc2OC)cc1,inactive
7,Cc1c(C=O)c2ccccc2n1Cc1ccccc1,"inconclusive [inhibitor, full curve, poor fit]"
8,CCOC(=O)C1=C(C)Nc2ccccc2N=C1NC(=O)/C=C/c1ccc(OC)cc1OC,"inconclusive [inhibitor, partial curve, poor fit]"
9,Brc1cccc(-c2nc3cccnc3nc2-c2cccc(Br)c2)c1,"inconclusive [inhibitor, partial curve, poor fit]"
10,Cc1ccc(C(=O)Nc2ccccc2NC(=O)c2ccc(C)o2)o1,"inconclusive [inhibitor, partial curve, poor fit]"
11,COC(=O)C(NC(C)=O)(Nc1sc2c(c1C(N)=O)CCCC2)C(F)(F)F (stereo unspecified),"inconclusive [inhibitor, single point]"
12,C#CCOC(=O)/C(=C/C=C/c1ccccc1)NC(=O)c1ccccc1,inactive
13,Nc1ccccc1C(=O)Nc1cccc2ccccc12,inactive
14,CC(=O)c1ccc(NC(=O)C(=O)c2cn(CC(=O)N3CCCCC3)c3ccccc23)cc1,"inconclusive [inhibitor, single point]"
15,CC1CCCN(C(=O)COC(=O)C2CCN(S(=O)(=O)c3ccc4c(c3)OCCO4)CC2)C1 (stereo unspecified),"inconclusive [inhibitor, full curve, poor fit]"
16,COc1cccc(NC(=O)CSc2nnc(CNC(=O)c3ccccc3F)o2)c1,"inconclusive [inhibitor, full curve, poor fit]"
17,NS(=O)(=O)c1ccc(NC(=O)c2ccc3c(c2)CCN3S(=O)(=O)c2ccccc2)cc1,inactive
18,COC(=O)c1cccc(NC(=O)c2cc(OC)c(OC)c(OC)c2Br)c1,"inconclusive [inhibitor, full curve, poor fit]"
19,COc1cc(C2c3cc4c(cc3C(OC3OC5COC(c6cccs6)OC5C(O)C3O)C3COC(=O)C23)OCO4)cc(OC)c1O (stereo unspecified),inactive
20,O=C(COC(=O)/C=C/c1ccccc1Cl)NC(=O)NC1CCCC1,"inconclusive [inhibitor, full curve, poor fit]"
21,O=C1Nc2ccc3sc4ccccc4c3c2C1=O,"inconclusive [inhibitor, partial curve]"
22,O=C(O)Cc1cc(C(=O)Nc2ccc(Br)cc2)sc1-c1ccccc1,"inconclusive [inhibitor, partial curve]"

row,SMILES,Potency
1,O=C(O)c1cc(-c2ccccc2)c(N2CCOCC2)s1,"inconclusive [inhibitor, full curve, poor fit]"
2,COC(=O)C1(CCSC)NC(c2ccco2)C2C(=O)N(C)C(=O)C21 (stereo unspecified),"inconclusive [inhibitor, full curve, poor fit]"
3,COc1ccc(CC(=O)NCc2ccco2)cc1OC,inactive
4,O=C(CCC(=O)N/N=C/c1ccc(Br)s1)NCc1ccccc1,"inconclusive [inhibitor, partial curve, poor fit]"
5,COC(=O)c1c(NS(=O)(=O)c2ccc(C)cc2)sc2c1CCC(C)C2 (stereo unspecified),"inconclusive [inhibitor, partial curve, poor fit]"
6,COc1nc(Oc2ccc(C(=O)OCC(N)=O)cc2)nc(N(C)C)n1,inactive
7,CCOC(=O)C1=C(C)Nc2nc(SCc3cccnc3)nn2C1c1ccc(OC)cc1 (stereo unspecified),"inconclusive [inhibitor, full curve, poor fit]"
8,COc1ccccc1NC(=O)C(O)C(O)C(=O)Nc1ccccc1OC (stereo unspecified),"inconclusive [inhibitor, single point]"
9,Cc1onc(-c2c(Cl)cccc2Cl)c1C(=O)c1c[nH]c(C(=O)NCC2CCCO2)c1 (stereo unspecified),inactive
10,O=C(CSc1cn(Cc2ccccc2)c2ccccc12)NCc1ccc(F)cc1,inactive
11,O=C(NCc1ccc2c(c1)OCO2)c1cc2c(s1)CS(=O)(=O)C2,"inconclusive [inhibitor, full curve]"
12,CC(=O)Oc1ccc2oc(=O)c3c(c2c1)CCCN3C(=O)CN1CCOCC1,inactive
13,COC(=O)C1=C(NC(=O)c2ccccc2C)CCS1,"inconclusive [inhibitor, full curve, poor fit]"
14,CCn1ccc2cc(S(=O)(=O)N3CCC(C(=O)NCCc4ccc(C)cc4)CC3)ccc21,inactive
15,CCOc1cc(NS(C)(=O)=O)c(OCC)cc1NC(=O)c1cccs1,"inconclusive [inhibitor, partial curve, poor fit]"
16,CCOC(=O)Nc1ccc2c(COC(=O)CNS(=O)(=O)c3cccc(Br)c3)cc(=O)oc2c1,"inconclusive [inhibitor, full curve, poor fit]"
17,Cc1nn(-c2ccccc2)c2[nH]c(=O)c(CNCc3ccc4c(c3)OCO4)cc12,inactive
18,CCCc1cn(S(=O)(=O)c2ccc(OC)cc2OC)nc1N,"inconclusive [inhibitor, full curve]"
19,CS(=O)(=O)n1nc(OC(=O)c2cccc3ccccc23)cc1N,"inconclusive [inhibitor, partial curve]"
20,COCCn1c(SCC(=O)NC2CCCC2)nc2ccccc2c1=O,"inconclusive [inhibitor, full curve, poor fit]"
21,Cc1cc(NC(=O)CSc2nnc(Cc3cccn3C)n2CCc2ccccc2)no1,"inconclusive [inhibitor, full curve, poor fit]"
22,C#CCn1c(S(=O)(=O)Cc2ccc(F)cc2)nc(-c2ccccc2)c1-c1ccccc1,"inconclusive [inhibitor, full curve]"
